Data on 71 molecules can be found in PubChem BioAssay AID488969 (Vanderbilt High Throughput Screening Facility, 2010).

In all, about 110,000 compounds were measured (“z-score”: median about -0.1, highest 2% from about 2 on). This is one part of the list. Activity calls are given as the source filed them.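 The calls were made as follows: active = z-score in the third read window above 3 or below -3; inactive = the rest.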

This assay addresses Metabotropic glutamate receptor 8 (Rattus norvegicus) (UniProt P70579). Put plainly: rat mGluR8 modulators via GIRK flux, primary screen, cell-based, thallium flux, HTS (AID 488969). To be noted: HEK293 rat mGluR8, GIRK (G protein-gated inwardly rectifying potassium channel) thallium flux, FluoZin2; at 10 µM; stronger effect = higher value; submaximal glutamate (EC20) added with thallium.
Sequence of UniProt P70579 (P70579 whole entry, looked up): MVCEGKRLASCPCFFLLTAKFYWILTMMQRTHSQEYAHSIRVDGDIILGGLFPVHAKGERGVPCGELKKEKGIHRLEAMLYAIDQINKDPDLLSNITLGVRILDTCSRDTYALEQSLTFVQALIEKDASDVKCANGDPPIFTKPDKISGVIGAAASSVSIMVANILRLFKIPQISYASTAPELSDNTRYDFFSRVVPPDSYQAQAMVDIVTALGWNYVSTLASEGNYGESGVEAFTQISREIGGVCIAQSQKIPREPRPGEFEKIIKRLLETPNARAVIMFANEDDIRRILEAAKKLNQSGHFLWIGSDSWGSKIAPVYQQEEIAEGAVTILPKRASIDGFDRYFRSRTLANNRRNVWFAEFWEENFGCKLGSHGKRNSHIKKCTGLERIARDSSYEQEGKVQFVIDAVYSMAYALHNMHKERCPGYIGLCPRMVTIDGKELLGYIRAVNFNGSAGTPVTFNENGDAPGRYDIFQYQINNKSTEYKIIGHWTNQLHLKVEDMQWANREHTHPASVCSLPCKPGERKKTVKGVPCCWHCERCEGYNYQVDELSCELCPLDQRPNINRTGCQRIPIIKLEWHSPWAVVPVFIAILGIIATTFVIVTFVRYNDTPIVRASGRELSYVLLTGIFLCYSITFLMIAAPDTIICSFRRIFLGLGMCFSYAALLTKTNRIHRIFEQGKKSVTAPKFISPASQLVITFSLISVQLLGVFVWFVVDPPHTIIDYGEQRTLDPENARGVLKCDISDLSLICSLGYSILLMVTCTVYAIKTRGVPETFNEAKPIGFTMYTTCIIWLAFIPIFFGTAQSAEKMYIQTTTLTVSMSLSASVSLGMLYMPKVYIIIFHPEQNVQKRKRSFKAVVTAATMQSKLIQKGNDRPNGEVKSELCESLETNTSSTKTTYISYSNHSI
Take `CCOc1ccc(N2C(=O)CC(Sc3nccc(C)n3)C2=O)cc1` (stereo unspecified): the z-score was -0.287. With `Cc1ccc(C)c(OCCCC(=O)Nc2ccc(N3CCOCC3)cc2)c1` the figure was 0.115; with `CCN(CC)S(=O)(=O)c1ccc(OC)c(NC(=O)C(Cc2ccccc2)N2C(=O)c3ccccc3C2=O)c1` (stereo unspecified), -0.425; with `Cc1ccc(CC2CC(=O)N(CC(=O)O)C2=O)cc1` (stereo unspecified), 0.135. The figure for `N#CC1(c2ccccc2)CCCN1C(=O)c1ccc(Br)cc1` (stereo unspecified) is -0.587; for `Cc1cc(C)c2c(-n3cccc3)c(NC(=O)OCc3ccccc3)sc2n1` it is -0.045; for `O=C(O)C1CCCCC1C(=O)NCCc1c[nH]c2ccccc12` (stereo unspecified) it is 0.809. The figure for `CCn1nc(C)c(NC(=O)/C=C/c2ccc(OC)c(COc3ccc(Cl)cc3Br)c2)c1C` is -0.251; for `CCOC(=O)C1CCCN(Cc2ccccc2Cl)C1` (stereo unspecified) it is -0.216. In the case of `Cc1scc(C(=O)N/N=C/c2ccco2)c1C`, the z-score is -0.0599. The figure for `O=CN1N=C(c2ccccc2)CC1c1ccccc1[N+](=O)[O-]` (stereo unspecified) is -0.461; for `O=C(Nc1cccc(-c2nnc(-c3ccco3)o2)c1)C(c1ccccc1)c1ccccc1` it is -0.291; for `COc1ccc(-c2nnc(SCC#N)o2)cc1` it is -0.0515. The figure for `Cc1cccc(-n2ccnc2SCC(=O)N2CCCc3ccccc32)c1C` is 1.72; for `CC(=O)Oc1ccc(C)cc1N1C(=O)c2ccc(C(=O)O)cc2C1=O` it is -0.326; for `O=C(CSc1nnc(-c2ccc(O)cc2)o1)Nc1ccc2c(c1)OCCO2` it is 0.0475.

Regarding `CCCCC(=O)NC(=S)NNC(=O)CC`, the z-score is -0.321. With `Cc1c(C(=O)N2CCc3ccccc3C2)oc2ccc(S(=O)(=O)N3CCCCCC3)cc12` the figure was 0.0067; with `CCCc1cc(=O)oc2cc(OCC(=O)Nc3cc(C)on3)ccc12`, -0.471; with `CCCCC(CC)C(=O)NCC(C)NC(=O)C(CC)CCCC` (stereo unspecified), -0.251. For the molecule `CCCc1cc2c(cc1NC(=O)c1ccc(C)cc1)OCO2`, the z-score was -0.173. For the molecule `Nc1nc2nc(-c3ccc(Cl)cc3)cc(C(F)(F)F)n2n1`, the z-score was -0.551. The figure for `O=C(NC1CCCCCCC1)C1c2ccccc2C(=O)N1Cc1ccco1` (stereo unspecified) is 0.11; for `COc1ccc([N+](=O)[O-])cc1NC(=O)CSc1nc(C)c(C)c(C)n1` it is -0.557. `CCN(CC)CCOC(=O)c1ccc(NC(=O)C(C)NC(=O)C23CC4CC(CC(C4)C2)C3)cc1` (stereo unspecified): the z-score came out at 0.0121. With `O=C1OC(Nc2ccccn2)c2ccccc21` (stereo unspecified) the figure was 0.127.

Turning to `COc1cc(NC(=O)c2ccc(Br)o2)ccc1NC(=O)C(C)C`, the z-score was determined as 0.351. `Cc1nc(S(=O)(=O)N2CCOCC2)c(C#N)c(C)c1Cl`: the z-score was -0.442.

`CCN(CC)c1ccc(NC(=O)COC(=O)/C=C/c2nc3ccccc3s2)cc1` had a z-score of 0.291. With `Cc1ccc(-n2cc(C(=O)c3ccc4ccccc4c3O)cn2)cc1` the figure was 0.561; with `COc1ccc(S(=O)(=O)N2CCC(C(=O)NCC3CCCO3)CC2)cc1C` (stereo unspecified), -0.178; with `CCOC(=O)c1[nH]c2ccc(OC)cc2c1NC(=O)c1cccc(OC)c1`, -0.567. In the case of `CCOc1ccc(/C=C/C(=O)NCCc2ccc(OC)c(OC)c2)cc1`, the z-score is -0.114.

Molecule `S=c1[nH]nc(-c2ccco2)n1/N=C/c1ccc(Cl)c(Cl)c1` gave a z-score of 1.59. The figure for `CN1CC(=O)N(CC(=O)Nc2ccc(F)cc2)c2ccccc2C1=O` is 1.12; for `O=C(CSc1nnc(-c2cccnc2)o1)Nc1ccccn1` it is -0.103. Regarding `CCOC(=O)Cn1c(=O)oc2cc(S(=O)(=O)N3CCN(c4ccccn4)CC3)ccc21`, the z-score is 0.514. Take `Cc1ccc(Nc2nc(-c3ccc(S(=O)(=O)N4CCOCC4)cc3)cs2)cc1Cl`: the z-score is -0.0144. The figure for `CN(C)S(=O)(=O)c1cccc(NC(=O)CCNC(=O)c2ccccc2Cl)c1` is -0.318; for `CCCCC(=O)NC(=S)Nc1ccc(S(=O)(=O)N2CCCC2)cc1` it is -0.211. With `COc1ccc(CNC(=O)Nc2ccc(C)cc2)cc1` the figure was 0.114; with `CCCc1c(O)nc(SCCN(CC)CC)[nH]c1=O`, 0.609; with `CC1CCCN(C2=C(Cl)C(=O)N(c3cccc(Cl)c3)C2=O)C1` (stereo unspecified), 0.0523.

As for `CCCOc1ccc(CC(=O)NCC2(c3ccccc3)CCOCC2)cc1OC`, the z-score was -0.693. As to `COC(=O)CN1C(=O)C2(OCCCO2)c2ccccc21`, the z-score was -0.288. The figure for `O=C(Nc1ncc2c(n1)-c1ccccc1OC2)c1ccc(Cl)cc1` is -0.202. As to `COc1ccc(N2CCN(C(=O)CCCn3c(=O)[nH]c4ccsc4c3=O)CC2)cc1`, the z-score came out at 0.0781. The figure for `O=C(Cn1c(=O)oc2ccccc21)Nc1nnc(N2CCCCCC2)s1` is -0.181; for `CN(C)/C=C1\C(=O)Nc2ccccc21` it is -0.00898; for `Cc1cccc(NC(=S)NC(=O)c2cc(-c3ccccc3)nc3ccccc23)c1` it is active: 5.14. On to `O=C(Oc1ccc2c3c(c(=O)oc2c1)CCC3)c1ccco1`, for which the z-score is -0.36. On to `Cc1ccc(C(=O)/C=C/c2ccc(-c3ccccc3[N+](=O)[O-])o2)cc1`, for which the z-score was -0.0214. With `Cc1cc(S(=O)(=O)N2CCC(NC(=O)C34CC5CC(CC(C5)C3)C4)CC2)ccc1-n1cnnn1` the figure was 0.165; with `c1ccc(-c2nnc3ccc(N4CCC5(CC4)OCCO5)nn23)cc1`, -0.675. The figure for `CC(CC(=O)Nc1ccncc1)c1ccccc1` (stereo unspecified) is 0.044; for `COc1cccc(/C=N/NC(=O)CC2C(=O)NN=C2C)c1O` (stereo unspecified) it is -0.287; for `Cc1ccc2nc(Nc3ccc4[nH]c(=O)[nH]c4c3)c(-n3nc(C)cc3C)nc2c1` it is 0.425. As for `O=C(COC(=O)C1c2ccccc2Oc2ccccc21)Nc1ccc2c(c1)OCO2`, the z-score was -0.567. For the molecule `CC(C)(C)C(=O)NCCCc1nc2ccccc2n1CCCOc1ccc(Cl)cc1`, the z-score was -0.459. With `O=C(CN1C(=O)NC2(CCCCCC2)C1=O)c1ccc2c(c1)OCCO2` the figure was 1.64. The figure for `CCc1cc2cc(C)cc(C)c2nc1SCC(=O)N1CCCC1` is 0.461. With `CC1(C)CC(=O)c2cc(OCC(=O)NCCN3CCCc4ccccc43)ccc2O1` the figure was 0.681; with `CCOc1ccc(S(=O)(=O)Nc2ccc(F)cc2)c(C)c1C`, -0.0918. As for `CCOc1ccc(-c2nnn(CCC(=O)O)n2)cc1OC`, the z-score is -0.13. With `C(=N\n1cnnc1)/c1cn(-c2cccs2)nc1-c1ccccc1` the figure was -1.09; with `COc1cccc(NC(=O)Cn2cc(C#N)c3ccccc32)c1`, 1.47; with `Nc1ncc(Br)cc1Br`, -0.156. The figure for `O=C(NC1CCCCC1)N(Cc1cc2cc3c(cc2[nH]c1=O)OCCO3)C1CCCCC1` is 0.0096; for `CCCCn1c(-c2ccoc2C)n[nH]c1=S` it is 0.216.

As to `O=C(O)/C=C/c1ccc2c(-c3ccccc3)onc2c1`, the z-score is -0.175. With `CCn1c(COc2cccc(C)c2C)nnc1SCC(=O)N1CCN(c2ccc(OC)cc2)CC1` the figure was -0.33.
